Experimental data as given in PubChem BioAssay AID1745845 (National Center for Advancing Translational Sciences (NCATS), 2022).
Where “and” joins values, the source holds several entries; their conditions need not be identical. Equal values may be shown once. Hit rate of the full screen: of about 360,000 compounds, about 2,600 (0.72%) were called active. The inconclusive results got no clear call from the source; some entries with a clear call stand among them for comparison. The call rests on the fitted dose curve; in most records, active means well fitted inhibition curve with a large enough effect; inconclusive means small, poorly fitted or top-dose-only effect; inactive means no such curve, though single readings can be large or run the other way. Potencies of inconclusive entries are doubtful fits and often do not repeat.

assay: Primary qHTS for Inhibitors of ATXN expression; conditions: HEK-293 ATXN2-luciferase reporter, luminescence, 24 h; activity change, negative = inhibition: at 57 µM (top of the series); further: nearly all actives have a fitted effect of over 55% in size
Summary of the method: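 ATXN2-luciferase reporter cells (luciferase flanked by upstream and downstream ATXN2 gene portions) were treated 24 h at 37 °C with compounds at up to 57 uM. SteadyGlo luminescence gave expression; GF-AFC fluorescence gave viability.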
On the % scale 0 is the no-effect control and ±100 the full control effect; potency means the concentration at half of the fitted maximal effect; tags describe the fitted curve by direction and shape.

For `N#Cc1cc([N+](=O)[O-])c(-n2nnc3ccccc32)c([N+](=O)[O-])c1`, which Potency is on record?
The Potency was inconclusive: 39.8 µM [inhibitor, single point].

For `CCCCC(=O)NC(c1ccccc1Cl)c1c(O)ccc2ccccc12` (stereo not given), which Potency is on record?
Its Potency is “inactive”.

Which Potency does the source give for `O=C(NCCc1c[nH]c2ccccc12)C(=O)NCC(c1cccnc1)N1CCN(c2ccccc2)CC1` (stereo not given) here?
The Potency was inconclusive: 21.2 µM [inhibitor, partial curve, poor fit].

For `Fc1ccc(NC(=S)NNc2ncc(C(F)(F)F)cc2Cl)c(F)c1`, which Potency is on record?
Its Potency is active: 14.1 µM.

With `Cc1cc(NCCN2CCOCC2)c2ccc3ccccc3c2n1` as the molecule, how does the Potency read?
The Potency was inconclusive: 25.1 µM [inhibitor, single point].

Which Potency does the source give for `COc1ccccc1NCC(O)COc1ccc(C(C)(C)C)cc1` (stereo not given) here?
Its Potency is inconclusive: 11.9 µM [inhibitor, partial curve, poor fit].

Which Potency does the source give for `CCN(CC)CCNC(=O)c1ccc2c(c1)NC(=O)c1ccccc1S2` here?
Its Potency is inconclusive: 4.47 µM [inhibitor, partial curve].

With `C/C(=N\Nc1ccc(Cl)nn1)c1ccccc1O` as the molecule, how does the Potency read?
The Potency was inconclusive: 14.1 µM [inhibitor, partial curve, poor fit].

With `N#CC(C#N)=C1C=CC=CN1/C(=C\c1ccccc1Cl)C(=O)c1ccccc1` as the molecule, how does the Potency read?
Its Potency is active: 12.6 µM.

For `C[C@]1(C(=O)NCc2cc(F)cc(C(F)(F)F)c2)C=C[C@@H](Cc2ccccc2)N1C(=O)c1ccccc1`, which Potency is on record?
Its Potency is inconclusive: 28.2 µM [inhibitor, single point].

With `CCOC(=O)C1=C(Cn2cnc3ccccc32)NC(=O)NC1c1cc(C)ccc1C` (stereo not given) as the molecule, how does the Potency read?
Its Potency is inconclusive: 39.8 µM [inhibitor, single point].

For `O=C(Nc1nnc(-c2ccccc2)o1)c1ccc(Cl)cc1`, which Potency is on record?
The Potency was active: 20 µM.

With `CC(C)c1ccc(NC(=O)Nc2nc(C(N)C3CCCCC3)cs2)cc1` (stereo not given) as the molecule, how does the Potency read?
The Potency was inconclusive: 25.1 µM [inhibitor, single point].

Which Potency does the source give for `CN(C)CCNC(=O)c1cccc2nc3c(ccc4ccccc43)nc12` here?
The Potency was “inactive”.

With `N=c1c(C(=O)NCc2ccco2)cc2c(=O)n3ccccc3nc2n1Cc1ccc(Cl)cc1` as the molecule, how does the Potency read?
Its Potency is inconclusive: 14.1 µM [inhibitor, partial curve, poor fit].

Which Potency does the source give for `O=C(CCN1C(=O)C2C3C=CC(C4CC34)C2C1=O)Oc1cccc2cccnc12` (stereo not given) here?
Its Potency is inconclusive: 20 µM [inhibitor, partial curve, poor fit].

Which Potency does the source give for `CC(C)C[C@H]1CNC(=S)N1C[C@H]1CCCN1C[C@H](CC(C)C)N1C[C@H](Cc2ccc(O)cc2)N(CC2CCCCC2)C1=S` here?
Its Potency is inconclusive: 39.8 µM [inhibitor, single point].

Which Potency does the source give for `COc1cccc(/C=C/c2nc(C#N)c(NCCc3ccc(OC)c(OC)c3)o2)c1` here?
The Potency was inconclusive: 39.8 µM [inhibitor, single point].

For `CCCCN1C(=O)C(O)(c2c[nH]c3ccccc23)c2cc(Br)ccc21` (stereo not given), which Potency is on record?
The Potency was inconclusive: 39.8 µM [inhibitor, single point].

Which Potency does the source give for `CC(C)N=C1NN=C(c2ccc(F)cc2)CS1` here?
Its Potency is inconclusive: 33.6 µM [inhibitor, single point].

With `CCOCCCNC(=O)CCc1nnc2n(CCC(C)C)c(=O)c3ccccc3n12` as the molecule, how does the Potency read?
Its Potency is inconclusive: 2.24 µM [inhibitor, partial curve, poor fit].

Which Potency does the source give for `O=C(O)c1ccccc1NS(=O)(=O)c1cccc2cccnc12` here?
The Potency was “inactive”.

With `CC(C)c1ccc(N(CC(=O)NN=C2CCN(C)CC2)S(=O)(=O)c2ccccc2)cc1` as the molecule, how does the Potency read?
The Potency was inconclusive: 3.77 µM [inhibitor, full curve, poor fit].

For `COc1cc(C(=O)NS(=O)(=O)c2ccccc2C)ccc1Cc1cn(C)c2ccc(NC(=O)OC3CCCC3)cc12`, which Potency is on record?
Its Potency is active: 38.5 µM.

For `O=C(Nc1cc(S(=O)(=O)N2CCOCC2)ccc1Cl)c1cc([N+](=O)[O-])ccc1Cl`, which Potency is on record?
The Potency was inconclusive: 39.8 µM [inhibitor, single point].

Which Potency does the source give for `Cc1ccc(-c2nc(N/N=C/c3ccccc3[N+](=O)[O-])c3ccccc3n2)cc1` here?
Its Potency is inconclusive: 39.8 µM [inhibitor, single point].

With `NC(N)=NNC(=O)c1ccccc1Cl` as the molecule, how does the Potency read?
The Potency was inconclusive: 3.55 µM [inhibitor, partial curve, poor fit].

With `CC(=O)Nc1ccc(-c2ccnc3c2CC(C(=O)Nc2cccc(C(F)(F)F)c2)O3)cc1` (stereo not given) as the molecule, how does the Potency read?
Its Potency is inconclusive: 28.2 µM [inhibitor, single point].

With `COc1ccc(C(=O)Nc2cc(C)nn2-c2nc3ccccc3[nH]2)c(OC)c1` as the molecule, how does the activity change, negative = inhibition read?
Its activity change, negative = inhibition is inconclusive: -45.9% [inhibitor].

For `CCOC(=O)[C@H]1[C@H]2COc3ccc(Cl)cc3[C@@H]2N2C(=O)c3cc(F)c(F)cc3NC(=O)[C@@]12C`, which Potency is on record?
Its Potency is “inactive”.

With `O=C(CCN1C(=O)/C(=C/c2cccs2)SC1=S)Nc1cccc(O)c1` as the molecule, how does the Potency read?
Its Potency is “inactive”.

With `O=c1c2ccccc2ncn1CCCSc1ccc(Cl)cc1` as the molecule, how does the Potency read?
Its Potency is “inactive”.

For `Cc1ccc(S(=O)(=O)N2CCN(C(=O)CSC(=S)N3CCCC3)CC2)c(C)c1`, which Potency is on record?
Its Potency is inconclusive: 25.1 µM [inhibitor, partial curve, poor fit].

With `Cc1ccc2oc(=O)c3cnn(CC(=O)N4CCN(c5ccccn5)CC4)c3c2c1` as the molecule, how does the Potency read?
The Potency was inconclusive: 23.8 µM [inhibitor, single point].

For `O=C(CCc1nc2sc3c(c2c(=O)[nH]1)CCCC3)Nc1ccccc1Cl`, which Potency is on record?
Its Potency is inconclusive: 22.4 µM [inhibitor, partial curve].

Which Potency does the source give for `CCCNC(=O)c1cc2c(c(-c3cccc(-c4ccc(F)cc4)c3)n1)[C@H](CCO)N(S(=O)C(C)(C)C)C2` (stereo not given in full) here?
The Potency was inconclusive: 31.6 µM [inhibitor, single point].

With `COc1ccc(CN2CCCN(S(=O)(=O)c3ccc(Br)cc3)CC2)cc1` as the molecule, how does the Potency read?
The Potency was inconclusive: 6.31 µM [inhibitor, single point].

With `Cc1cc(C2CCCCC2)n(O)c(=O)c1` as the molecule, how does the Potency read?
Its Potency is active: 8.91 µM and active: 7.69 µM and active: 17.8 µM.

For `O=C(NCc1cccc(Cl)c1)c1ccc(-n2cncn2)c2ccoc12`, which Potency is on record?
Its Potency is “inactive”.

With `CCOC(=O)c1ccc(N2C(=O)c3n[nH]c(-c4ccco4)c3C2c2ccc(O)cc2)cc1` (stereo not given) as the molecule, how does the Potency read?
The Potency was inconclusive: 39.8 µM [inhibitor, single point].
